Reference: PubChem BioAssay (Tox21)
“And” between values parts separate entries of the source, which are not always exact repeats. Equal values may be shown once. This list was built around the results that the source calls inconclusive (neither active nor inactive); the mix of calls is not that of the screen. Potencies beside an inconclusive call are fits to weak or partial responses and may not hold up. Some compounds were tested as several samples or in several runs, with calls that do not always agree. The source made the active and inactive calls. Unless noted, the call rests on the fitted dose curve.

biological target: Bile acid receptor (Homo sapiens) (UniProt Q96RI1); assay: qHTS assay to identify small molecule antagonists of the farnesoid-X-receptor (FXR) signaling pathway (AID 743217; active means well fitted inhibition curve with a large enough effect in the signal ratio in the repeat runs, not every such curve was filed as active; inconclusive means weak or mixed curves, or effect the other way; inactive means no such curve, though single readings can be large or run the other way; the % refers to the signal ratio); conditions: HEK293T FXR-UAS-bla, beta-lactamase ratio, CDCA-stimulated, 16 h; activity change, negative = inhibition: at 62.6 µM (top of the series) unless noted
Sequence of UniProt Q96RI1 (Q96RI1 whole entry, looked up): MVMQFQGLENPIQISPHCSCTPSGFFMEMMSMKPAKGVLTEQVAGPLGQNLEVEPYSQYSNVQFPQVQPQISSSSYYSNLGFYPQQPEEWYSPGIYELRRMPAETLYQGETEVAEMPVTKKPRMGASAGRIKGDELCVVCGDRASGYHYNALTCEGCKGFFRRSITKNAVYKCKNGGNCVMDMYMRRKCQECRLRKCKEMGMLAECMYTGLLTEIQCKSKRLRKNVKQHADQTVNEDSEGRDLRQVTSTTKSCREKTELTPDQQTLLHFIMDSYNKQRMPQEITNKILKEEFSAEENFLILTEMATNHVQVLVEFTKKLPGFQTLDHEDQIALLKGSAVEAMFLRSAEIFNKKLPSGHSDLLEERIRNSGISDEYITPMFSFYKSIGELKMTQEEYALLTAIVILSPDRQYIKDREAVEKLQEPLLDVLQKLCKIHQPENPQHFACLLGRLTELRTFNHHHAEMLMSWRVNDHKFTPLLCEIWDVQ
Summary of the method: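 Test compounds are pin-transferred onto FXR-bla HEK 293T cells, then chenodeoxycholic acid is added at 50 uM final. After 16 h at 37 °C, LiveBLAzer B/G substrate is applied for 2 h at room temperature and fluorescence read.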
On the % scale 0 is the no-effect control and ±100 the full control effect; potency means the concentration at half of the fitted maximal effect; tags describe the fitted curve by direction and shape or compound fluorescence and quenching.

SMILES | Potency | activity change, negative = inhibition
CNC(=O)c1ccccc1Sc1ccc2c(/C=C/c3ccccn3)n[nH]c2c1 | inconclusive: 4.22 µM [rising, partial curve] | –
C=C[Si](OC(=C)C)(OC(=C)C)OC(=C)C | – | inactive: -6.89%
C(=C\c1ccccc1)/c1ccccc1 | – | inactive: -4.02% [at 81.1 µM]
CCCCCCCCOS(=O)(=O)O | – | inactive: 5.13%
O=Cc1ccc(F)cc1 | – | inactive: 4.98%
CC(O)CN(CCN(CC(C)O)CC(C)O)CC(C)O (stereo not drawn) | – | inconclusive: -6.53%

system: not listed separately; assay: qHTS assay to identify small molecule agonists of the farnesoid-X-receptor (FXR) signaling pathway - cell viability counter screen (AID 743218; active means well fitted cell-killing curve with a large enough effect in the repeat runs; inconclusive means weak or mixed curves, or effect the other way; inactive means no such curve, though single readings can be large or run the other way; further: nearly all actives have a fitted effect of over 45% in size); conditions: FXR-bla HEK293T viability, CellTiter-Glo luminescence, 16 h; viability change, negative = cytotoxic: at 62.6 µM (top of the series) unless noted
Summary of the method: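 Quantitative HTS counter screen measuring ATP-based viability via CellTiter-Glo luminescence in HEK 293T cells carrying a UAS-driven beta-lactamase reporter, after 16 h compound exposure at 37 C.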

SMILES | viability change, negative = cytotoxic | Potency
CCCCCCCCC=O | inconclusive: 40.1% | –
CNC(=O)c1ccccc1Sc1ccc2c(/C=C/c3ccccn3)n[nH]c2c1 | – | inconclusive: 33.5 µM [cytotoxic, single point]
CN1CCCC1=O | – | inconclusive: 0.0716 µM [rising, full curve, poor fit]
Cc1c(O)cccc1C(=O)N[C@@H](CSc1ccccc1)[C@H](O)CN1C[C@H]2CCCC[C@H]2C[C@H]1C(=O)NC(C)(C)C | – | active: 6.74 µM and active: 26.6 µM
CC[C@H]1CN2CCc3cc(OC)c(OC)cc3[C@@H]2C[C@@H]1C[C@H]1NCCc2cc(OC)c(OC)cc21 | – | active: 27.6 µM
C(=C\c1ccccc1)/c1ccccc1 | – | inconclusive: 0.194 µM [rising, full curve, poor fit]
C=C[C@H]1CN2CC[C@H]1C[C@@H]2[C@@H](O)c1ccnc2ccc(OC)cc12 | – | active: 24.1 µM
CN(C)CCOC(c1ccccc1)c1ccccc1 (tested in a mixture with another compound) | – | inconclusive: 139 µM [cytotoxic, partial curve, poor fit]
CNCCC(Oc1ccc(C(F)(F)F)cc1)c1ccccc1 (stereo not drawn) | – | active: 21.6 µM and inconclusive: 33.5 µM [cytotoxic, single point]

system: not listed separately; assay: qHTS assay to identify small molecule antagonists of the farnesoid-X-receptor (FXR) signaling pathway - cell viability counter screen (AID 743221; active means well fitted cell-killing curve with a large enough effect in the repeat runs, not every such curve was filed as active; inconclusive means weak or mixed curves, or effect the other way; inactive means no such curve, though single readings can be large or run the other way; further: nearly all actives have a fitted effect of over 50% in size); conditions: FXR-bla HEK293T viability, CellTiter-Glo luminescence, 16 h; activity change, negative = cytotoxicity: at 62.6 µM (top of the series) unless noted
Summary of the method: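 Quantitative HTS of the Tox21 10K library run in parallel with the beta-lactamase reporter read. HEK 293T cells carrying a UAS-driven bla reporter got compound and 50 uM CDCA (final) for 16 h; ATP-based luminescence followed.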

SMILES | activity change, negative = cytotoxicity | Potency
Cc1ccccc1N=C(N)Nc1ccccc1C | inactive: -3.15% | –
CNC(=O)c1ccccc1Sc1ccc2c(/C=C/c3ccccn3)n[nH]c2c1 | – | inconclusive: 33.5 µM [falling, single point]
CC[C@H]1CN2CCc3cc(OC)c(OC)cc3[C@@H]2C[C@@H]1C[C@H]1NCCc2cc(OC)c(OC)cc21 | – | inconclusive: 55.1 µM [falling, single point]
[Cl][In]([Cl])[Cl] | – | inconclusive: 61.6 µM [phenotype inactive, single point]
CN(C)CCOC(c1ccccc1)c1ccccc1 (tested in a mixture with another compound) | – | inconclusive: 7.82 µM [falling, partial curve, poor fit]
CNCCC(Oc1ccc(C(F)(F)F)cc1)c1ccccc1 (stereo not drawn) | – | inconclusive: 23.7 µM [falling, partial curve]
CC(CO)CO | – | inconclusive: 65.7 µM [falling, partial curve, poor fit]

biological target: Vitamin D3 receptor (Homo sapiens) (UniProt P11473); assay: qHTS assay to identify small molecule agonists of the vitamin D receptor (VDR) signaling pathway (AID 743222); conditions: HEK293T VDR-UAS-bla, beta-lactamase FRET ratio, 16 h; activation: at 63.5 µM (top of the series) unless noted
Sequence of UniProt P11473 (P11473 whole entry, looked up): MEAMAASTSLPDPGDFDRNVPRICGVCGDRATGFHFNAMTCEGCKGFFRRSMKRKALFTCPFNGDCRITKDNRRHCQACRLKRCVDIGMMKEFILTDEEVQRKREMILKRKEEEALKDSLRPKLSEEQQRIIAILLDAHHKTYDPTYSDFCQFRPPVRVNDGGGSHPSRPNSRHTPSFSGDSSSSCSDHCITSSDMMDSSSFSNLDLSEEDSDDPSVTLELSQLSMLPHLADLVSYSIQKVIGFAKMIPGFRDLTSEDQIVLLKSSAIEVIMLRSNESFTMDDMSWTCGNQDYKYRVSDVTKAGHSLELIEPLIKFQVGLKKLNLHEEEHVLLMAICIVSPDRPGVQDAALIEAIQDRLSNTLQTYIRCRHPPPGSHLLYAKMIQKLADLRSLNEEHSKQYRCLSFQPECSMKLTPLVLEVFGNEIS
Summary of the method: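 Tox21 cell reporter format: VDR-bla line, 16 h compound exposure in 5% CO2 at 37C, then fluorescence intensity after 2 h with LiveBLAzer B/G FRET substrate.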

SMILES | activation | Potency
CCCCCCCCC=O | inconclusive: 6.91% | –
CNC(=O)c1ccccc1Sc1ccc2c(/C=C/c3ccccn3)n[nH]c2c1 | – | inconclusive: 11.9 µM [rising, partial curve, poor fit]
Cc1c(O)cccc1C(=O)N[C@@H](CSc1ccccc1)[C@H](O)CN1C[C@H]2CCCC[C@H]2C[C@H]1C(=O)NC(C)(C)C | – | inconclusive: 47.7 µM [fluorescent, partial curve] and inconclusive: 23.7 µM [fluorescent, partial curve]
Cc1ccc(NC(N)=O)cc1 | inactive: 5.94% [at 81.1 µM] | –
CN(C)c1ccc(N=NS(=O)(=O)O)cc1 | – | inconclusive: 12.3 µM [rising, partial curve, poor fit]
COc1cccc(OC)c1C(=O)O | inactive: 1.53% | –
[Cl][In]([Cl])[Cl] | – | inconclusive: 4.9 µM [fluorescent, full curve, poor fit]
CNC[C@H](O)[C@@H](O)[C@H](O)[C@H](O)CO | – | inactive
CNCCC(Oc1ccc(C(F)(F)F)cc1)c1ccccc1 (stereo not drawn) | inconclusive: -36% | –

biological target: Vitamin D3 receptor (Homo sapiens) (UniProt P11473); assay: qHTS assay to identify small molecule antagonists of the vitamin D receptor (VDR) signaling pathway (AID 743223; active means well fitted inhibition curve with a large enough effect in the signal ratio in the repeat runs, not every such curve was filed as active; inconclusive means weak or mixed curves, or effect the other way; inactive means no such curve, though single readings can be large or run the other way; the % refers to the signal ratio); conditions: VDR-UAS-bla HEK293T, beta-lactamase FRET ratio, 16 h; activity change, negative = inhibition: at 61 µM (top of the series) unless noted
Summary of the method: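 Fluorescence from LiveBLAzer B/G FRET substrate, read after 2 h at room temperature, reflects beta-lactamase reporter activity in VDR-bla cells treated 16 h at 37C with compounds and agonist 1alpha,25-dihydroxyvitamin D3 (3 nM final).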

SMILES | Potency | activity change, negative = inhibition
CCCCCCCCC=O | inconclusive: 54.9 µM [inhibitor, partial curve, poor fit] | –
CNC(=O)c1ccccc1Sc1ccc2c(/C=C/c3ccccn3)n[nH]c2c1 | inconclusive: 26.8 µM | –
CN1CCCC1=O | inactive | –
Cc1c(O)cccc1C(=O)N[C@@H](CSc1ccccc1)[C@H](O)CN1C[C@H]2CCCC[C@H]2C[C@H]1C(=O)NC(C)(C)C | inconclusive: 42.5 µM [partial curve] and inconclusive: 26.8 µM | –
Cc1ccc(C(C)(C)O)cc1 | – | inconclusive: 23%
O=c1cc[nH]c(=O)[nH]1 | – | inconclusive: 17% [activator] [at 78.8 µM]
CCCc1ccc(OC)cc1 | – | inconclusive: 45.3% [at 78.8 µM]
O=Cc1ccc(F)cc1 | – | inconclusive: 4.68%
CN(C)c1ccc(N=NS(=O)(=O)O)cc1 | inconclusive: 0.0082 µM [falling, partial curve, poor fit] | –
COc1cccc(OC)c1C(=O)O | – | inconclusive: -8.15%
[Cl][In]([Cl])[Cl] | inconclusive: 12.3 µM [activator] | inconclusive: 15.3%
CC(O)CN(CCN(CC(C)O)CC(C)O)CC(C)O (stereo not drawn) | – | inconclusive: 0%
CCCCCCCCCCCC(=O)OC | inactive | –
CNCCC(Oc1ccc(C(F)(F)F)cc1)c1ccccc1 (stereo not drawn) | inconclusive: 48.4 µM [partial curve] | inconclusive: -29.9%
CC(CO)CO | – | inconclusive: 6.63% [at 78.8 µM]
